# In PubChem BioAssay AID485294 (National Center for Advancing Translational Sciences (NCATS), 2010):
# The whole screen tested about 370,000 compounds, of which about 150 (0.041%) were called active. The shares of active, inactive and inconclusive entries below differ from those in the screen. Calls come from the whole dose curve; as a rule, active = well fitted inhibition curve with a large enough effect; inconclusive = small, poorly fitted or top-dose-only effect; inactive = flat fitted curve, though single readings scatter. No potency is given beside an inconclusive call; the fits are too rough.
# Molecular target: Beta-lactamase (Escherichia coli (strain K12)) (UniProt P00811)
# Chain of UniProt P00811 (P00811 whole entry, looked up): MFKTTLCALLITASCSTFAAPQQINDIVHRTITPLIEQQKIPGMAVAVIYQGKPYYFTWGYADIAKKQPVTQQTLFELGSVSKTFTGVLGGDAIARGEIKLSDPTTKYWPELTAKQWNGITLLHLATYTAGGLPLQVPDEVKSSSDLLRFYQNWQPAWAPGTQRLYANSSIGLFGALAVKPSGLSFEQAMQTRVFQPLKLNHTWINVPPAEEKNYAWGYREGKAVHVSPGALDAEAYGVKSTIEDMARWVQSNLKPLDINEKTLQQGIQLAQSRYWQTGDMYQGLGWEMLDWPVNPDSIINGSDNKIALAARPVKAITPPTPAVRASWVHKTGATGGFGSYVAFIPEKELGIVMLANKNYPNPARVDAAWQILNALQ
# Assay: qHTS Inhibitors of AmpC Beta-Lactamase (assay with detergent); note: nearly all actives have a fitted effect of over 25% in size;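 for activity change, negative = inhibition: 0% = no-compound wells and -100% = no-enzyme wells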
# Details: AmpC hydrolysis of nitrocefin, absorbance 480 nm, 0.01% Triton; activity change, negative = inhibition: at 114 µM (top of the series)
# How it was run: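 20 mM phosphate pH 7.0 + 0.01% (detergent screen) or 0.0001% Triton X-100; 5.3 nM AmpC reagent; cpd preinc 15 min RT; nitrocefin (800 uM stock) to start; A480 q20 s × 4 min; Activity was normalised to no-enzyme and no-compound control wells.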
# Potency is the fitted concentration of half-maximal effect; tags give direction and shape of the fitted curve.
SMILES,Potency,"activity change, negative = inhibition"
COc1cc(CCC(=O)NC2(C)CCS(=O)(=O)C2)cc(OC)c1OC (configuration not stated),"inconclusive [inhibitor, full curve, poor fit]",–
Cc1cc(C(=O)CSc2nnc(N)s2)c(C)n1CCc1ccc(Cl)cc1,"inconclusive [inhibitor, full curve, poor fit]",–
CC(C)NC(=O)COc1ccc(OCc2ccccc2)cc1,–,inactive: -4.09%
O=C(/C=C/c1ccc(Cl)cc1Cl)N(Cc1ccccc1)C1CCS(=O)(=O)C1 (configuration not stated),"inconclusive [inhibitor, full curve]",–
CC(C)NC(=O)c1cc2n(n1)C(C(F)(F)F)CC(c1ccco1)N2 (configuration not stated),"inconclusive [inhibitor, full curve]",–
S=C(NCc1cccs1)Nc1cccc2ccccc12,"inconclusive [inhibitor, single point]",–
CCOC(=O)c1c(-c2ccccc2)csc1NC(=O)CSc1nnc(C)s1,"inconclusive [inhibitor, partial curve, poor fit]",–
Cc1ccc(NC(=S)N2CCC(NC(=O)c3ccc(C)cc3)CC2)cc1,–,inactive: 0.446%
O=C(C(Cc1ccccc1)n1cccc1)N1CCCCCC1 (configuration not stated),"inconclusive [inhibitor, full curve, poor fit]",–
O=C(CCN1C(=O)/C(=C\c2ccccc2F)SC1=S)N1CCCCC1,"inconclusive [inhibitor, full curve]",–
O=C1COc2ccc(-c3cc(-c4ccc(Cl)cc4)c4c(n3)-c3ccccc3OC4)cc2N1,–,inactive: 0.0803%
O=C(NCc1ccc(F)cc1)Nc1ccccc1,–,inactive: -3.89%
CN(CC(=O)N1CCCCCC1)S(=O)(=O)c1ccccc1,–,inactive: 4.23%
CN(Cc1ccccc1)C(=O)C1CCN(S(=O)(=O)c2ccc3c(c2)oc(=O)n3C)CC1,–,inactive: 14.6%
CC(C)Oc1ccc(C(CCNCc2ccc(O)cc2)c2ccccc2)cc1 (configuration not stated),–,inactive: 0.411%
O=C(NCC1CCCO1)c1cc(-c2ccncc2)nc2ccccc12 (configuration not stated),"inconclusive [inhibitor, partial curve, poor fit]",–
COc1ccc(CN2CCC(=O)N(CCO)CC2)cc1OC,"inconclusive [inhibitor, full curve]",–
COc1ccccc1OCc1ccc(C(=O)N(C)c2ccccc2)o1,"inconclusive [inhibitor, single point]",–
O=C(NCc1cccnc1)C1c2ccccc2C(=O)N1Cc1ccco1 (configuration not stated),–,inactive: -7.48%
O=C1CC2(CCN(C(=O)c3cccc(F)c3)CC2)Oc2ccccc21,"inconclusive [inhibitor, full curve, poor fit]",–
O=C(Cn1cnc2c(nnn2-c2ccccc2)c1=O)NCC1CCCO1 (configuration not stated),"inconclusive [inhibitor, full curve]",–
O=C(NN=C1CCCCCCC1)C(=O)NC1CCCCC1,–,inactive: -5.77%
Fc1cccc(-c2cc3nc4c(c(N5CCC6(CC5)OCCO6)n3n2)CCCC4)c1,–,inactive: 4.3%
CCC(=O)NC(c1ccco1)c1cc(Br)c2cccnc2c1O (configuration not stated),"inconclusive [inhibitor, full curve]",–

SMILES,Potency,"activity change, negative = inhibition"
Cc1cccc2c1OCC/C2=N\NC(=O)COc1ccccc1,"inconclusive [inhibitor, single point]",–
CN(Cc1cc2ccccc2[nH]c1=O)C(=O)C1CCCCC1,"inconclusive [inhibitor, partial curve]",–
CCc1ccccc1NC(=O)CN(C)Cc1nc(N)nc(Nc2ccccc2C)n1,–,inactive: -3.87%
CCOC(=O)c1c(-c2ccccc2)oc2ccc(OCC(N)=O)cc12,"inconclusive [inhibitor, full curve]",–
C=CCN=C1N[C@@H](c2ccccc2)C(C(=O)OC)=C(C)N1CCOC,"inconclusive [inhibitor, full curve, poor fit]",–
CC(NC(=O)C1CCCC1)c1ccc2c(c1)OCCO2 (configuration not stated),"inconclusive [inhibitor, full curve, poor fit]",–
CCc1nc(NCCN)c(C#N)c2c1CSC(C)(C)C2,"inconclusive [inhibitor, partial curve]",–
CCS(=O)(=O)N1CCN(Cc2ccncc2)CC1,–,inactive: -12.1%
Nc1nc(CCl)nc(Nc2ccccc2)n1,"inconclusive [inhibitor, full curve, poor fit]",–
Cc1ccc2ncc(S(=O)(=O)c3ccccc3)c(N3CCCCC3C)c2c1 (configuration not stated),"inconclusive [inhibitor, full curve, poor fit]",–
O=C(CCCc1c[nH]c2ccccc12)N1CCCCCC1,"inconclusive [inhibitor, full curve, poor fit]",–
COc1ccc2cc(CCNC(=O)c3ccc(Br)o3)c(=O)[nH]c2c1,"inconclusive [inhibitor, full curve, poor fit]",–
O=C(N/N=C\c1ccc([N+](=O)[O-])o1)c1cncc(Br)c1,–,inactive: 1.25%
O=C(COC(=O)/C=C/c1cccc(C(F)(F)F)c1)NCc1ccco1,–,inactive: 0%
Cc1ccccc1-n1c(=O)c(C#N)cc2c(=O)n3ccccc3nc21,"inconclusive [inhibitor, full curve, poor fit]",–
Cc1ccc(S(=O)(=O)N2CCOCC2)cc1NC(=O)COC(=O)CSc1ccc(Br)cc1C,–,inactive: 0.458%
C1=CC2c3ccccc3NC(c3ccncc3)C2C1 (configuration not stated),–,inactive: 4.57%
CC(=O)N1N=C(N)SC1c1cccc([N+](=O)[O-])c1 (configuration not stated),"inconclusive [inhibitor, full curve, poor fit]",–
Cc1ccc(Cl)cc1NC(=O)COC(=O)C1CCCCC1,"inconclusive [inhibitor, full curve, poor fit]",–
CSc1ccc(CNC(=O)Cc2csc3ccccc23)cc1,–,inactive: 25.2%
CCOc1ccccc1-n1c(=S)sc2c(=O)n(-c3ccccc3)c(=S)[nH]c21,"inconclusive [inhibitor, single point]",–
O=C(Cc1nn[nH]n1)c1ccccc1O,"inconclusive [inhibitor, full curve]",–
COc1cc(OC)cc(-c2oc3cccnc3c2C#CCCO)c1,"inconclusive [inhibitor, full curve, poor fit]",–
